# Laboratory results as given in PubChem BioAssay AID1487 (National Center for Advancing Translational Sciences (NCATS), 2009).
# In all, about 200,000 compounds went through this assay and about 25 (0.01%) were called active. Not shown: some 23% with an inconclusive outcome. Calls come from the whole dose curve; as a rule, active = well fitted inhibition curve with a large enough effect in the signal ratio, with a control signal flat (not every such curve was filed as active); inconclusive = small, poorly fitted or top-dose-only effect, or effect the other way, or a change in a side signal; inactive = flat fitted curve, though single readings scatter; the % refers to the signal ratio. The entries are a selection whose mix differs from that of the whole data set.
# Test: qHTS Assay for Modulators of Lamin A Splicing
# Settings: HeLa LMNA splicing GFP/RFP minigene ratio, 48 h; series mostly up to 46.1 µM; ratio change, negative = inhibition: at the top concentration
# Excerpt: NCGC Assay Overview: Hutchinson-Gilford Progeria Syndrome (HGPS) is a pediatric premature aging disease caused by a spontaneous mutation in the lamin A/C (LMNA) gene. The mutation activates a cryptic splice site in the LMNA pre-mRNA which results in production of a pre-lamin A protein that cannot be processed properly. The mutant protein accumulates in the nucleus and negatively affects numerous cellular functions. Correction of the splicing defect in HGPS patient cells using a targeted oligonucleotide (exo11) leads to reversal of the cellular disease phenotypes. To identify small molecule modulators of aberrant LMNA splicing, a homogenous assay was constructed in HeLa cells that used a GFP containing minigene to report on correction of aberrant splicing in lamin A and a RFP (DsRed2) to report on cell viability, uniformity and nonspecific effects on the assay signal. This assay was adapted to laser-scanning microplate cytometry (Acumen, TTP Labtech) where miniaturization of the assay to a 1,536-well plate format was possible. References: Bowen, W. P.; Wylie, P. G. Application of Laser-Scanning Fluorescence Microplate Cytometry in High Content Screening. Assay Drug Dev Technol 2006;4:209-221. Scaffidi P, Misteli T. Reversal of the cellular phenotype in the premature aging disease Hutchinson-Gilford progeria syndrome. Nat.
# NCGC Assay Protocol Summary: Reagents/Controls: Stable clones expressing DsRed2 and lamin A-EGFP were generated by Cell and Molecular Technologies in S3 HeLa cells. HeLa cells were prepared for the assay when they were 70-90% confluent. The cells were counted and resuspended in Opti-MEM I (no phenol red; Gibco), 2% FBS, 1% penicillin/ streptomycin (Gibco) at concentration of 120 cells/uL concentration. The suspension was passed through a Falcon basket filter with pore size 40um (Beckton Dickson). Control titrations: column […] 1536-well plate contained a sixteen point titration (1:2 dilutions) in duplicate of ancitabine (Sigma: A8598) beginning at 40 uM final concentration. Column 2 contained a sixteen point titration (1:2 dilutions) of cycloheximide beginning at 1.4 mM final concentration. Column 3 contained ancitabine at 40 uM and column 4 contained was the vehicle control (0.5% DMSO final concentration). Assay Steps: 5 uL of HeLa cells were plated in Aurora LoBase black clear bottom (cyclic-olefin polymer) 1536-well plates at a final density of 600 cells/well. Controls and library compounds were added with a 1536-well pin array using the Kalypsys pin-tool. The plates were then incubated for 48 hrs in a cell-culture incubator (37 °C; 5% CO2, 98% humidity). Following incubation the plates were read on the Acumen Explorer using the 488 nm laser. Data was collected on objects between 10 and 100 um in size. Cell objects were defined by a 15 um width x 10 um depth filter. The ratio of the total object intensity in PMT1 (500-530 nm emission; GFP) over PMT3 (575-640 nm emission; RFP) was calculated for analysis. Keywords: NIH Roadmap, MLSCN, MLI, MLSMR, qHTS, NCGC, lamin A, Progeria, RNA splicing.
# % is set by controls: 0 for no effect and ±100 for the full control effect; potency is the fitted concentration of half-maximal effect.
Structure (SMILES),"ratio change, negative = inhibition",Potency
CC(C)CCN(C(=O)Nc1ccccc1)C(C)c1cccs1 (centres undefined),inactive: -7%,
CC(C)n1cc(/C=C2\NC(=O)N(c3cccc(Cl)c3)C2=O)c2ccccc21,inactive: -27.2%,
Cc1c(C)c2c(c(C)c1O)CC[C@@](C)(CCC[C@@H](C)CCC[C@@H](C)CCCC(C)C)O2,inactive: -3.04%,
CN(C)CC[C@H](c1ccc(Cl)cc1)c1ccccn1,inactive: -6.98%,
COc1ccccc1NC(=O)/C=C/C(=O)O,inactive: 5.36% [at 46 µM],
CN(C)CCCN1c2ccccc2CCc2ccc(Cl)cc21,inactive: -7.77%,
CC(=O)OCC(=O)[C@@]1(OC(C)=O)[C@H](C)C[C@H]2[C@@H]3C[C@H](F)C4=CC(=O)C=C[C@@]4(C)[C@]3(F)[C@H](O)C[C@@]21C,inactive: 5.8%,
CCOC(=O)Nc1ccc2c(c1)N(C(=O)CCN1CCOCC1)c1ccccc1S2,inactive: -29.1% [at 46 µM],
Cc1ccc(C(=O)C[n+]2cc(-c3ccccc3)n3c2CCCCC3)cc1,inactive: -18.4%,
O=C(NCc1ccccn1)[C@@H]1C[C@H]1[C@@H](NP(=O)(c1ccccc1)c1ccccc1)c1ccccc1,inactive: 8.74%,
Nc1ccc(S(=O)(=O)NC(=O)c2ccccc2)cc1,inactive: -3.43%,
CCN1C(=O)/C(=C2/Sc3ccccc3N2CCCS(=O)(=O)O)SC1=S,inactive: -5.76% [at 46 µM],
CC(C)NC[C@H](O)c1ccc(NS(C)(=O)=O)cc1,inactive: 2.67%,
O=C1OC(c2ccc(O)cc2)(c2ccc(O)cc2)c2ccccc21,inactive: -16.3%,
CN(C)C1C(=O)C(C(N)=O)=C(O)[C@@]2(O)C(=O)C3=C(O)c4c(O)ccc(Cl)c4[C@@H](O)C3C[C@@H]12 (some centres undefined),inactive: -18%,
Cc1c(Cl)cccc1Nc1ccccc1C(=O)O,inactive: -9.26%,
c1ccc(CC2=NCCN2)cc1,inactive: 6.87%,
O=C(O)CCc1nc(-c2ccccc2)c(-c2ccccc2)o1,inactive: -6.19%,
O=C1c2ccccc2C(=O)C1c1ccccc1,inactive: -12.9%,
C=C(C)[C@H]1CC=C(C)/C(=N/NC(=O)CNc2ccccc2OC)C1,inactive: 4.16%,
CCOC(=O)N1CCC(=C2c3ccc(Cl)cc3CCc3cccnc32)CC1,inactive,
C[C@]12CCC(=O)C=C1CC[C@@H]1[C@@H]2C(=O)C[C@@]2(C)[C@H]1CC[C@]2(O)C(=O)CO,inactive,
CCOC(=O)OC(C)OC(=O)C1N2C(=O)C(NC(=O)C(N)c3ccccc3)C2SC1(C)C (centres undefined),inactive: -5.27%,
O=C(O)/C=C\C(=O)NCc1ccccc1,inactive: 10.4%,
O=S(=O)(O)C1CCNCC1,inactive: -6.03%,

Structure (SMILES),"ratio change, negative = inhibition",Potency
CN1C2CCC1CC(OC(=O)c1c[nH]c3ccccc13)C2 (centres undefined),inactive,
O=C(O)Cc1ccc(-c2ccccc2)cc1,inactive: -0.922%,
Cc1cncn1CCc1nc2c3ccccc3nc(SCC(=O)Nc3cccc(Cl)c3)n2n1,inactive: -9.22% [at 46 µM],
CCN(CC)CCOC(=O)C1(C2CCCCC2)CCCCC1,inactive,
CN(C)CCCN1c2ccccc2Sc2ccc(C(F)(F)F)cc21,inactive,
COc1cc(C(=O)OCCCN2CCCN(CCCOC(=O)c3cc(OC)c(OC)c(OC)c3)CC2)cc(OC)c1OC,inactive: -24.3%,
COC(=O)C1=C(C)NC(C)=C([N+](=O)[O-])C1c1ccccc1C(F)(F)F (centres undefined),inactive: -6.86%,
CCCCN(CCCC)CCCOC(=O)c1ccc(N)cc1,inactive: -2.44%,
CC(=O)NC(CC(=O)O)C(=O)NC(CCC(=O)O)C(=O)O (centres undefined),inactive: -7.97%,
CCCc1cc(C(N)=S)ccn1,inactive: -3.69%,
NNCCc1ccccc1,inactive: -2.26%,
CN1CCN(CC/C=C2/c3ccccc3Sc3ccc(S(=O)(=O)N(C)C)cc32)CC1,inactive,
CN1CCC(=C2c3ccccc3C=Cc3ccccc32)CC1,inactive: -22.3%,
Cc1ccsc1/C=C/C1=NCCCN1C,inactive: -8.95%,
OC(CCCN1CCCCC1)(c1ccccc1)c1ccccc1,inactive: -9.43%,
CCN(CC)CCOC(=O)C(c1ccccc1)c1ccccc1,inactive: -0.688%,
Oc1c(C=C2N=c3ccccc3=N2)sc(=S)n1C1CCCCC1,inactive: -10%,
NC(N)=Nc1nc(CSCC/C(N)=N/S(N)(=O)=O)cs1,inactive: -4.01%,
Cc1cc(-c2ccccc2)nnc1NCCN1CCOCC1,inactive: -11.5%,
N[C@H](C(=O)N[C@@H]1C(=O)N2C(C(=O)O)=C(Cl)CS[C@@H]12)c1ccccc1,inactive: -17.6%,
O=C(N/C(=C/c1cccs1)C(=O)N1CCOCC1)c1cccs1,inactive: -1.64% [at 46 µM],
CC(=O)c1cc2c(cc1N/C(=N/S(=O)(=O)c1ccc(C)cc1)c1ccc(Cl)cc1)OCO2,inactive: -5.98% [at 46 µM],
CCCCOc1cc(CC2CNC(=O)N2)ccc1OC (centres undefined),inactive: 18.7%,
Cc1onc(-c2c(F)cccc2Cl)c1C(=O)N[C@H]1C(=O)N2[C@H]1SC(C)(C)[C@H]2C(=O)O,inactive: -9.53%,
Cc1ccc(C(=O)N/C(=C/c2ccc(-c3ccc(Br)cc3)o2)C(=O)NC2CCS(=O)(=O)C2)cc1 (centres undefined),inactive: -5.35%,

Structure (SMILES),"ratio change, negative = inhibition",Potency
CN1Cc2c(N)cccc2C(c2ccccc2)C1 (centres undefined),inactive: 5.27%,
Nc1c2c(nc3ccccc13)CCCC2O (centres undefined),inactive: 3.21%,
COc1ccccc1OCC(O)COC(N)=O (centres undefined),inactive: -1.16%,
CC[C@@H]1OC(=O)[C@H](C)[C@H](O[C@@H]2C[C@](C)(OC)[C@H](O)[C@H](C)O2)[C@H](C)[C@H](O[C@@H]2O[C@@H](C)C[C@@H](N(C)C)[C@@H]2O)[C@](C)(O)C[C@H](C)[C@@H]2N[C@H](COCCOC)O[C@H]([C@@H]2C)[C@]1(C)O,inactive: -14.3%,
CCCC(=O)OC1CC(C)N(C(=O)c2ccccc2)c2ccc(C)cc21 (centres undefined),inactive: -21.2%,
CC(=O)OCC(=O)[C@@]1(OC(C)=O)[C@@H](C)C[C@H]2[C@@H]3C[C@H](F)C4=CC(=O)C=C[C@]4(C)[C@@]3(F)[C@@H](O)C[C@@]21C,inactive: -1.32%,
CC(N=C(NC#N)Nc1ccncc1)C(C)(C)C (centres undefined),inactive: -3.99%,
c1ccc(CN(CC2=NCCN2)c2ccccc2)cc1,inactive,
COC(=O)[C@@H]1[C@@H]2C[C@H]3c4[nH]c5cc(OC)ccc5c4CCN3C[C@@H]2C[C@H](OC(=O)c2cc(OC)c(OC)c(OC)c2)[C@H]1OC,inactive: -13.7%,
O=C(O)CN(CCN(CC(=O)O)CC(=O)O)CCN(CC(=O)O)CC(=O)O,inactive: -16.7%,
COc1ccccc1N1CCN(CCCNc2cc(=O)n(C)c(=O)n2C)CC1,inactive,
CCC(C)n1ncn(-c2ccc(N3CCN(c4ccc(OCC5COC(Cn6cncn6)(c6ccc(Cl)cc6Cl)O5)cc4)CC3)cc2)c1=O (centres undefined),inactive: -0.607% [at 46 µM],
Cc1cccc(Nc2ccccc2C(=O)O)c1C,inactive: 5.58%,
Fc1ccc([C@@H]2CCNC[C@H]2COc2ccc3c(c2)OCO3)cc1,inactive: -16.8% [at 46 µM],
Cc1cc(C)c(NC(=O)Cn2cnc3c(oc4ccccc43)c2=O)c(C)c1,inactive: -4.12% [at 46 µM],
NCC[C@H](O)C(=O)N[C@@H]1C[C@H](N)[C@@H](O[C@H]2O[C@H](CN)[C@@H](O)[C@H](O)[C@H]2O)[C@H](O)[C@H]1O[C@H]1O[C@H](CO)[C@@H](O)[C@H](N)[C@H]1O,inactive: 7.55%,
Cc1ccc(C2C(=O)N(C3CCC(C)CC3)CC(=O)N2C2CCCC2)cc1 (centres undefined),inactive: 0.441%,
COc1c2c(nc3ccccc13)OC(C(C)(O)CO)C2 (centres undefined),inactive: 7.34%,
CN(C)[C@@H]1C(=O)C(C(N)=O)=C(O)[C@@]2(O)C(=O)C3=C(O)c4c(O)ccc(Cl)c4[C@@H](O)[C@H]3C[C@@H]12,inactive: 1.02%,
CC(C)(C)NCC(O)COc1cccc2c1C[C@H](O)[C@H](O)C2 (some centres undefined),inactive: 2.92%,
COc1ccc(/C=C2\SC(c3ccc(C)cc3)=NC2=O)cc1OC,inactive: -6.4%,
C#C[C@]1(O)CC[C@H]2[C@@H]3CCC4=C(CCC(=O)C4)[C@H]3CC[C@@]21C,inactive: 1.12%,
CC(C)(C)NCC(O)c1cc(O)cc(O)c1 (centres undefined),inactive: -1.07%,
CCOC(=O)c1c(-c2cccc(C)c2)csc1NC(=O)c1c(-c2ccccc2)noc1C,,active: 631 nM
CCOc1ccc(NC(C)=O)cc1,inactive: -9.42%,

Structure (SMILES),"ratio change, negative = inhibition",Potency
CN1CCC[C@@H]1CCO[C@](C)(c1ccccc1)c1ccc(Cl)cc1,inactive: -19.1%,
CCOC(=O)CN1C(=O)N[C@H](c2ccc(Br)cc2)C(C(C)=O)=C1C,inactive: 2.62%,
CCCCOC(=O)C1C2C=CC3(CN(CCc4ccccc4)C(=O)C13)O2 (centres undefined),inactive: 0.3%,
C/C(CCN1CCc2nc(-c3ccccc3)c(-c3ccccc3)cc2C1)=N\O[C@@H](C)c1cn([C@H](CO)Cc2ccccc2)nn1,inactive: -10.4%,
Cc1ccccc1C(OCCN(C)C)c1ccccc1 (centres undefined),inactive: 0.356%,
C[C@@]12CC3CC(N)(C1)C[C@@](C)(C3)C2,inactive: -7.39%,
CN1CCC(=C2c3ccccc3CCc3sccc32)CC1,inactive,
COc1ccccc1N1CCN(CCCCNC(=O)c2ccc3ccccc3c2)CC1,inactive: -25.5%,
CC(O)(P(=O)(O)O)P(=O)(O)O,inactive: -1.55%,
Cc1cnc(C(=O)NCCc2ccc(S(=O)(=O)NC(=O)NC3CCCCC3)cc2)cn1,inactive,
CCOC(=O)[C@H](CCc1ccccc1)N[C@@H](C)C(=O)N1CCC[C@H]1C(=O)O,inactive: -2.03%,
CC(=O)O[C@]1(C(C)=O)CC[C@@H]2[C@@H]3C=C(C)C4=CC(=O)CC[C@@]4(C)[C@H]3CC[C@]21C,inactive: 13%,
CN(C)CC/C=C1\c2ccccc2COc2ccccc21,inactive,
C[C@]12CC[C@@H]3c4ccc(O)cc4CC[C@H]3[C@@H]1C[C@@H](O)[C@@H]2O,inactive: 10.1%,
O=C(CSCc1ccc(F)cc1)N1CCN(c2ccccc2)CC1,inactive: 11.4% [at 46 µM],
CCOc1cc(N2CCOCC2)c(OCC)cc1NC(=O)Cn1[nH]c(=O)c2ccccc2c1=O,inactive: 6.3%,
Cc1ccccc1N1C(=O)c2cc(S(N)(=O)=O)c(Cl)cc2NC1C (centres undefined),inactive: -18.8%,
Nc1nc(SCc2ccc([N+](=O)[O-])cc2)c2ncn([C@@H]3O[C@H](CO)[C@H](O)[C@H]3O)c2n1,inactive: -17.5%,
C[C@@H]1C[C@H](OC(=O)c2ccccc2O)CC(C)(C)C1,inactive: 3.2%,
C[C@]12CC[C@@H]3c4ccc(O)cc4CC[C@H]3[C@@H]1C[C@H](O)C2O (some centres undefined),inactive: 1.99%,
CC(C)NC[C@H](O)c1ccc(O)c(O)c1,inactive: -14.7%,
O=C(CCN1C(=O)/C(=C\c2cccs2)SC1=S)Nc1ccccn1,inactive: -21.6% [at 46 µM],
CC1CCC(C(C)C)C(OC(=O)Cn2c(-c3ccc(Br)cc3)[n+](C)c3ccccc32)C1 (centres undefined),inactive: -24.2% [at 46 µM],
O=C(NN1C(=O)/C(=C\c2cccnc2)SC1=S)C(c1ccccc1)c1ccccc1,inactive: -21.1%,
